Assay results taken from PubChem BioAssay AID602179 (National Center for Advancing Translational Sciences (NCATS), 2012).
In all, about 390,000 compounds went through this assay and about 360 (0.092%) were called active. Inconclusive results, whose numbers are uncertain, are shown with a selection of clear calls. Calls follow the shape of the dose curve; as a rule, active = well fitted inhibition curve with a large enough effect; inconclusive = small, poorly fitted or top-dose-only effect; inactive = no such curve, though single readings can be large or run the other way. Potencies beside an inconclusive call are fits to weak or partial responses and may not hold up. The source holds several records for some structures; these can differ, active in one and inactive in another.

target: Isocitrate dehydrogenase [NADP] cytoplasmic (Homo sapiens) (UniProt O75874); assay: qHTS for Inhibitors of mutant isocitrate dehydrogenase 1 (IDH1): qHTS; conditions: IDH1-R132H enzyme, NADPH consumption, diaphorase/resazurin fluorescence; series mostly up to 76.6 µM; also: nearly all actives have a fitted effect of over 65% in size
How it was run: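 IDH1-R132H (0.5 ug/mL dispensed) in pH 7.5 Tris buffer was preincubated 30 min with compound, then given a substrate mix of 0.016 mM NADPH and 2 mM alpha-KG for 80 min at room temperature; remaining NADPH was read by diaphorase/resazurin fluorescence.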
Potency is read from the fitted curve at half-maximal effect; tags tell the direction and shape of the fitted curve.

How did the Potency turn out when `Cc1cccc(N2CCN(S(=O)(=O)c3nnc(NC(=O)c4ccc(Cl)cc4)s3)CC2)c1` was run?
The Potency was “inactive”.

`CCOc1ccc(Br)cc1S(=O)(=O)Nc1cccc(S(=O)(=O)Nc2ccccc2C(=O)O)c1` was tested. Which Potency did it give?
Its Potency is inconclusive: 58.5 µM [inhibitor, single point].

Which Potency does the source give for `Cc1ccc(S(=O)(=O)N2[C@@H](c3ccc(C(C)(C)C)cc3)C(C(=O)O)=CC[C@H]2c2ccc(C(C)C)cc2)cc1` here?
The Potency was inconclusive: 50.1 µM [inhibitor, single point].

`O=C(/C(=C/c1ccncc1)n1ccnc1)c1ccc(Cl)cc1Cl` was tested. Which Potency did it give?
The Potency was inconclusive: 58.5 µM [inhibitor, single point].

With `Cc1cccc(N(C(=O)CCC(=O)Nc2cc(C)on2)C(C(=O)NC2CCCC2)c2ccccc2)c1` (stereo not given) as the compound, how does the Potency read?
The Potency was active: 44.7 µM.

For `CC(=O)NC1C(=O)N(CCN2CCOCC2)c2ccc(C)cc21` (stereo not given), which Potency is on record?
The Potency was inconclusive: 44.7 µM [inhibitor, partial curve, poor fit].

`O=C(/C=C/c1cccc(Cl)c1)c1ccc([N+](=O)[O-])o1` was tested. Which Potency did it give?
The Potency was inconclusive: 3.16 µM [inhibitor, full curve, poor fit].

`CCOc1ccc(N(C)S(=O)(=O)c2ccc3c(c2)C(C)(C)C(=O)N3C)cc1` was tested. Which Potency did it give?
Its Potency is inconclusive: 70.8 µM [inhibitor, single point].

`O=C(NCc1ccc(F)cc1)c1cccc2c1C(=O)c1ccc(N3CCC(Cc4ccccc4)CC3)cc1S2(=O)=O` was tested. Which Potency did it give?
Its Potency is “inactive”.

Which Potency does the source give for `COc1c(OC(C)=O)ccc(/C=C/c2ccc3ccccc3n2)c1[N+](=O)[O-]` here?
Its Potency is inconclusive: 26.1 µM [inhibitor, full curve].

For `COc1ccc(CNC(=O)c2cc3cc(C)ccc3n2C)cc1`, which Potency is on record?
The Potency was “inactive”.

With `Cc1ccc(NS(=O)(=O)c2cc(NC(=O)c3ccc4c(c3)NC(=O)CS4)ccc2Cl)c(C)c1` as the compound, how does the Potency read?
Its Potency is “inactive”.

Which Potency does the source give for `COC(=O)C1=C(C)N(Cc2ccccc2)C(=NCc2cccc(C(F)(F)F)c2)N[C@H]1c1cccc(C(F)(F)F)c1` here?
Its Potency is inconclusive: 22.4 µM [inhibitor, single point].

For `COc1ccc(N2C(=O)CCSC23C(=O)N(Cc2ccc(F)cc2)c2ccccc23)cc1Cl` (stereo not given), which Potency is on record?
The Potency was inconclusive: 22.4 µM [inhibitor, full curve].

`Cc1ccc(-n2c(=S)sc3c(=O)n(-c4ccccc4F)c(SCC(=O)O)nc32)cc1C` was tested. Which Potency did it give?
The Potency was inconclusive: 52.1 µM [inhibitor, single point].

How did the Potency turn out when `O=C1c2[nH]nc(-c3ccccc3O)c2C(c2cccc(Cl)c2)N1CC1CCCO1` (stereo not given) was run?
Its Potency is inconclusive: 58.5 µM [inhibitor, single point].

How did the Potency turn out when `CCn1c(=O)c2cc(C(=O)N(C)c3cc(C)ccc3C)sc2c2ccccc21` was run?
Its Potency is inconclusive: 39.8 µM [inhibitor, partial curve].

Which Potency does the source give for `Cc1ccc(NC(=O)Cc2nnc(SCC(=O)Nc3ccccc3)n2C)cc1` here?
Its Potency is “inactive”.

`COc1cccc(Cn2c(=O)n(-c3cccc(Cl)c3C)c(=O)c3c4c(sc32)CN(C(C)=O)CC4)c1` was tested. Which Potency did it give?
Its Potency is active: 35.5 µM.

Which Potency does the source give for `CCCCOc1ccc(C2c3c(-c4ccccc4O)n[nH]c3C(=O)N2Cc2ccncc2)cc1OC` (stereo not given) here?
Its Potency is inconclusive: 50.1 µM [inhibitor, single point].

Which Potency does the source give for `CCc1ccc(-n2c(=O)c3c(C)c(C(=O)N(C)C)sc3n(Cc3cccc(C)c3)c2=O)cc1` here?
Its Potency is inconclusive: 25.1 µM [inhibitor, partial curve].

How did the Potency turn out when `CC1(C)Cc2c(c(N3CCOCC3)nc3sc4c(=O)[nH]cnc4c23)CS1` was run?
The Potency was inconclusive: 46.5 µM [inhibitor, partial curve].

For `CC1(C)Oc2ccc3ccc(=O)oc3c2/C(=C/Nc2ccccn2)C1=O`, which Potency is on record?
The Potency was active: 29.3 µM.

For `Cc1cccc(N2CCN(CC3CCCCC3)CC2)c1C`, which Potency is on record?
Its Potency is “inactive”.

Which Potency does the source give for `O=C(Nc1cccc(OC(=O)c2ccc(Br)o2)c1)c1ccccc1` here?
Its Potency is “inactive”.

`O=C(NCc1cccs1)c1cccnc1Cl` was tested. Which Potency did it give?
Its Potency is “inactive”.

Which Potency does the source give for `COc1ccc(C(CCN(Cc2ccc(OC)c(OC)c2)C(C)=O)C(C)C)cc1` (stereo not given) here?
The Potency was inconclusive: 58.5 µM [inhibitor, single point].

Which Potency does the source give for `CCCCc1nc(SCC(=O)N2CCCCC2)c2c(=O)n(C)c(=O)n(C)c2n1` here?
The Potency was inconclusive: 44.7 µM [inhibitor, single point].

For `O=C(NCc1ccc(Cl)cc1)c1cc2ccccc2oc1=O`, which Potency is on record?
Its Potency is “inactive”.

How did the Potency turn out when `O=C(CSC(=S)N1CCCCC1)Nc1ncc2c(n1)CCCC2=O` was run?
The Potency was inconclusive: 58.5 µM [inhibitor, single point].

`COc1cccc(Nc2nc3c(S(=O)(=O)c4cc(C)ccc4C)nnn3c3ccsc23)c1` was tested. Which Potency did it give?
Its Potency is inconclusive: 5.62 µM [inhibitor, full curve].

Which Potency does the source give for `Cc1cc(C)c(NC(=O)CSC2=Nc3ccccc3C3=NC(CC(=O)NCc4cccs4)C(=O)N23)c(C)c1` (stereo not given) here?
Its Potency is inconclusive: 50.1 µM [inhibitor, single point].

`COc1ccccc1C(C)Nc1nc(-c2cccnc2)nc2ccccc12` (stereo not given) was tested. Which Potency did it give?
Its Potency is inconclusive: 58.5 µM [inhibitor, single point].

With `Cc1cc(C)c2cc(C)c(SCC(=O)NCc3ccco3)nc2c1` as the compound, how does the Potency read?
The Potency was inconclusive: 58.5 µM [inhibitor, partial curve, poor fit].

With `Cn1c(N)c(C(=O)COC(=O)c2cc(C(F)(F)F)nc3ccccc23)c(=O)n(Cc2ccccc2)c1=O` as the compound, how does the Potency read?
Its Potency is “inactive”.

How did the Potency turn out when `NNC(=O)c1ccc(Oc2cc(Cl)cc(Cl)c2)o1` was run?
The Potency was inconclusive: 52.1 µM [inhibitor, single point].

Which Potency does the source give for `C[C@@H]1CN([C@H](C)CO)S(=O)(=O)c2ccc(-c3ccc(C#N)cc3)cc2O[C@H]1CN(C)C(=O)Nc1cc(F)ccc1F` here?
The Potency was inconclusive: 50.1 µM [inhibitor, single point].

With `COc1cc(NS(=O)(=O)c2ccc(NC(=S)NC(=O)/C=C/c3ccc(OC)c(OC)c3)cc2)ncn1` as the compound, how does the Potency read?
The Potency was inconclusive: 6.31 µM [inhibitor, full curve, poor fit].

For `COc1ccc(CCNS(=O)(=O)c2ccc(F)c(C(=O)Nc3ccc(Cl)cc3)c2)cc1OC`, which Potency is on record?
The Potency was inconclusive: 50.1 µM [inhibitor, single point].

How did the Potency turn out when `CC(C)C[C@H]1CN([C@@H](CC(C)C)CN2CCC[C@@H]2CN2C(=O)C(=O)NC[C@@H]2Cc2ccccc2)C(=O)C(=O)N1CC1CCCCC1` was run?
Its Potency is inconclusive: 44.7 µM [inhibitor, partial curve, poor fit].

For `CN(C)c1ccc(-c2noc(C3CC(=O)N(c4ccc5c(c4)OCCO5)C3)n2)cc1` (stereo not given), which Potency is on record?
Its Potency is “inactive”.

With `O=C(NC1CCCCC1)C(c1ccco1)N(C(=O)c1csnn1)c1cccc(Cl)c1` (stereo not given) as the compound, how does the Potency read?
Its Potency is inconclusive: 50.1 µM [inhibitor, single point].

With `COc1ccc(CN2C(=O)c3cccnc3C2Nc2cc(Cl)c(OC)cc2OC)cc1` (stereo not given) as the compound, how does the Potency read?
Its Potency is inconclusive: 58.5 µM [inhibitor, single point].

How did the Potency turn out when `CN(C)CCNC(C(=O)Nc1cccc(C(F)(F)F)c1)c1ccccc1` (stereo not given) was run?
The Potency was “inactive”.

Which Potency does the source give for `O=C(CSc1ncc2c(n1)-c1cc(Cl)ccc1N(Cc1ccccc1)S2(=O)=O)NCc1ccccc1` here?
The Potency was inconclusive: 70.8 µM [inhibitor, single point].

With `CCC(C)C(N)C1=NC(C(=O)N[C@@H](CC(C)C)C(=O)N[C@H](CCC(=O)[O-])C(=O)N[C@H](C(=O)N[C@H]2CCCCNC(=O)[C@H](CC(N)=O)NC(=O)[C@@H](CC(=O)[O-])NC(=O)[C@H](Cc3cnc[nH]3)NC(=O)[C@@H](Cc3ccccc3)NC(=O)[C@H]([C@@H](C)CC)NC(=O)[C@@H](CCCN)NC2=O)[C@@H](C)CC)CS1.[Zn+2]` (stereo not given in full) as the compound, how does the Potency read?
Its Potency is active: 31.6 µM.

How did the Potency turn out when `CCCOc1c(Br)cc(C(N)=O)cc1OCC` was run?
The Potency was “inactive”.

With `CS(=O)(=O)N1CCc2cc(S(=O)(=O)NCc3ccccc3Cl)ccc21` as the compound, how does the Potency read?
The Potency was inconclusive: 50.1 µM [inhibitor, single point].

`Cc1ccc(Sc2c(C)nn(C(=O)COc3ccccc3)c2C)cc1` was tested. Which Potency did it give?
The Potency was inconclusive: 63.1 µM [inhibitor, single point].

Which Potency does the source give for `Cc1ccccc1OCCn1cc(C(=O)O)c2ccccc21` here?
The Potency was “inactive”.

Which Potency does the source give for `CC1=C(C(=O)OCc2ccc3c(c2)OCO3)C(c2ccc(Cl)cc2)NC(=O)N1` (stereo not given) here?
The Potency was inconclusive: 23.3 µM [inhibitor, single point].

`CCO[C@@H]1OC(C(=O)Nc2ccccc2)=C[C@H](c2ccc(Br)cc2)[C@H]1CCCO` was tested. Which Potency did it give?
The Potency was inconclusive: 39.8 µM [inhibitor, partial curve, poor fit].

Which Potency does the source give for `CC(=O)Oc1ccc(C(=O)[C@H]2[C@H]3C(=O)N(c4ccccc4)C(=O)[C@H]3[C@@H]3C=CC=NN32)cc1` here?
The Potency was inconclusive: 58.5 µM [inhibitor, single point].

`O=C1C2C(C(=O)N1/N=C/c1cc([N+](=O)[O-])c(O)cc1O)C1C=CC2C12CC2` (stereo not given) was tested. Which Potency did it give?
Its Potency is “inactive”.

How did the Potency turn out when `O=C(CCl)N1c2ccccc2Sc2ccc3ccccc3c21` was run?
Its Potency is inconclusive: 50.1 µM [inhibitor, single point].

For `CCOc1cc(/C=C(\C#N)C(=O)Nc2cccc(C(=O)O)c2)ccc1OCc1ccccc1Cl`, which Potency is on record?
The Potency was active: 32.9 µM.

With `COc1ccc([C@H]2Oc3cc(O)cc(O)c3C(=O)C2[C@@H]2C(=O)c3c(O)cc(O)cc3O[C@@H]2c2ccc(OC)cc2)cc1` (stereo not given in full) as the compound, how does the Potency read?
The Potency was inconclusive: 63.1 µM [inhibitor, single point].

For `COCCN1C(=O)c2[nH]nc(-c3cc(C)ccc3O)c2C1c1ccc(C(C)C)cc1` (stereo not given), which Potency is on record?
The Potency was inconclusive: 44.7 µM [inhibitor, partial curve, poor fit].

`CCCCCc1c2c(cc(O)c1C(=O)O)OC(=O)c1c(cc(OC)cc1C(=O)CCCC)O2` was tested. Which Potency did it give?
The Potency was inconclusive: 50.1 µM [inhibitor, single point].

Which Potency does the source give for `N#C/C(=C\c1coc2ccc(O)cc2c1=O)C(=O)Nc1nc2ccccc2s1` here?
The Potency was inconclusive: 52.1 µM [inhibitor, partial curve, poor fit].
